The results in this text go back to the supplement of paper PMC10369915.

The other results are listed elsewhere or left out. Cut-off read from the data, not from the text of the source: active = 3.2 or more and inactive = the rest. Only a few entries rise above the background.
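Note: displayed peptides selected on beads carrying the immobilized SH2 domain, with library peptides lacking any tyrosine serving as negative controls.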

One assay has as its target SHP2 C-SH2 domain E139D. Put plainly: enrichment score (SH2-bound / input frequency) (ratio); bacterial display of known human phosphotyrosine sites (pTyr-Var adds point mutants) read by sequencing; higher = stronger binding; tyrosines were phosphorylated by kinases first. The conditions noted are these: peptide library: pTyr-Var.
For GRQWNYVASMS [KLHL4_Y552], the enrichment score was inactive: 1.2.
On to STGWSYAGVAV [KLHL3_Y577_R575W], for which the enrichment score was inactive: 0.715.
As for KNDSKYVVKGN [KIT_Y823_N822K], the enrichment score was inactive: 0.625.
In the case of RLRKYYLGKYL [KLB_Y906], the enrichment score is inactive: 0.309.
Still for that read-out and setting: as for VLRQVYVDFEG [KMT2B_Y1707_R1705Q], the figure is inactive: 1.65; as for NYSKMYCNPDA [KNL1_Y489_A486S], inactive: 0.483; as for TKVVHYRKWIK [KLK2_Y249], inactive: 0.902.
For NYAKMYCNPDA [KNL1_Y489], the enrichment score is inactive: 0.951.
As to KILTHYKQPHT [KMT2D_Y5349_R5351Q], the enrichment score is inactive: 1.32.
Still for that read-out and setting: as for ENQEIYRKAFD [KPNA1_Y493_Q494R], the figure is inactive: 0.537; as for PSARTYCYKQE [KLHDC9_Y175], inactive: 1.03.
Regarding RLRKYHLGKYL [KLB_Y906_Y906H], the enrichment score was inactive: 0.23.
For the molecule PRARTYCYKQE [KLHDC9_Y175_S171R], the enrichment score was inactive: 0.448.
SYTDPYAQPSL [KMT2D_Y2378_P2382S]: the enrichment score is inactive: 0.736.
On to HFVDEYDPTIE [KRAS_Y32], for which the enrichment score is inactive: 0.555.
FHLGKYLQEVL [KLB_Y910_Y906H_YF]: the enrichment score was inactive: 1.13.
Turning to PRARTYCFKQE [KLHDC9_Y175_S171R_YF], the enrichment score was inactive: 1.02.
KNDSIYVVKGN [KIT_Y823_N822I]: the enrichment score was inactive: 0.597.
With VVKTVYSLQPP [KNSTRN_Y87], the enrichment score was inactive: 1.25.

The target of another assay is SHP2 C-SH2 domain wild-type. The assay is described as above. The conditions noted are these: peptide library: pTyr-Var.
Regarding GRQWNYVASMS [KLHL4_Y552], the enrichment score was inactive: 1.13.
For the molecule STGWSYAGVAV [KLHL3_Y577_R575W], the enrichment score is inactive: 0.691.
On the same count and under the same terms, as for KNDSKYVVKGN [KIT_Y823_N822K], the figure is inactive: 0.633; as for RLRKYYLGKYL [KLB_Y906], inactive: 0.25.
For the molecule VLRQVYVDFEG [KMT2B_Y1707_R1705Q], the enrichment score was inactive: 1.49.
For NYSKMYCNPDA [KNL1_Y489_A486S], the enrichment score is inactive: 0.59.
Still for that read-out and setting: with TKVVHYRKWIK [KLK2_Y249] the figure was inactive: 0.739.
On the same count and under the same terms, with NYAKMYCNPDA [KNL1_Y489] the figure was inactive: 0.954; with KILTHYKQPHT [KMT2D_Y5349_R5351Q], inactive: 1.14.
In the case of ENQEIYRKAFD [KPNA1_Y493_Q494R], the enrichment score is inactive: 0.559.
The same measure, in the same setting: as for PSARTYCYKQE [KLHDC9_Y175], the figure is inactive: 0.714; as for RLRKYHLGKYL [KLB_Y906_Y906H], inactive: 0.26; as for PRARTYCYKQE [KLHDC9_Y175_S171R], inactive: 0.635.
Turning to SYTDPYAQPSL [KMT2D_Y2378_P2382S], the enrichment score is inactive: 0.659.
For the molecule HFVDEYDPTIE [KRAS_Y32], the enrichment score was inactive: 0.585.
Consider FHLGKYLQEVL [KLB_Y910_Y906H_YF], for which the enrichment score was inactive: 1.27.
PRARTYCFKQE [KLHDC9_Y175_S171R_YF]: the enrichment score is inactive: 1.13.
Regarding KNDSIYVVKGN [KIT_Y823_N822I], the enrichment score is inactive: 0.496.
As for VVKTVYSLQPP [KNSTRN_Y87], the enrichment score was inactive: 1.01.

A further assay deals with SHP2 N-SH2 domain L43F. The assay is described as above. The conditions noted are these: peptide library: pTyr-Var.
Turning to GRQWNYVASMS [KLHL4_Y552], the enrichment score is inactive: 1.06.
Take STGWSYAGVAV [KLHL3_Y577_R575W]: the enrichment score is inactive: 0.865.
Consider KNDSKYVVKGN [KIT_Y823_N822K], for which the enrichment score was inactive: 0.595.
Same read-out and setting: with RLRKYYLGKYL [KLB_Y906] the figure was inactive: 0.321.
As to VLRQVYVDFEG [KMT2B_Y1707_R1705Q], the enrichment score is inactive: 1.54.
On the same count and under the same terms, with NYSKMYCNPDA [KNL1_Y489_A486S] the figure was inactive: 0.688; with TKVVHYRKWIK [KLK2_Y249], inactive: 0.654.
The same measure, in the same setting: with NYAKMYCNPDA [KNL1_Y489] the figure was inactive: 0.816; with KILTHYKQPHT [KMT2D_Y5349_R5351Q], inactive: 1.33; with ENQEIYRKAFD [KPNA1_Y493_Q494R], inactive: 0.508.
As to PSARTYCYKQE [KLHDC9_Y175], the enrichment score was inactive: 0.783.
For RLRKYHLGKYL [KLB_Y906_Y906H], the enrichment score is inactive: 0.255.
Still for that read-out and setting: with PRARTYCYKQE [KLHDC9_Y175_S171R] the figure was inactive: 0.561.
Consider SYTDPYAQPSL [KMT2D_Y2378_P2382S], for which the enrichment score is inactive: 0.728.
With HFVDEYDPTIE [KRAS_Y32], the enrichment score is inactive: 0.59.
Same read-out and setting: with FHLGKYLQEVL [KLB_Y910_Y906H_YF] the figure was inactive: 0.919.
On the same count and under the same terms, as for PRARTYCFKQE [KLHDC9_Y175_S171R_YF], the figure is inactive: 1.23.
With KNDSIYVVKGN [KIT_Y823_N822I], the enrichment score was inactive: 0.506.
For VVKTVYSLQPP [KNSTRN_Y87], the enrichment score is inactive: 0.887.

For another assay, the target named is SHP2 N-SH2 domain T42A. The description is as above. The conditions noted are these: peptide library: pTyr-Var.
Regarding GRQWNYVASMS [KLHL4_Y552], the enrichment score is inactive: 1.27.
Consider STGWSYAGVAV [KLHL3_Y577_R575W], for which the enrichment score is inactive: 0.76.
In the case of KNDSKYVVKGN [KIT_Y823_N822K], the enrichment score is inactive: 0.497.
For the molecule RLRKYYLGKYL [KLB_Y906], the enrichment score is inactive: 0.168.
Still for that read-out and setting: with VLRQVYVDFEG [KMT2B_Y1707_R1705Q] the figure was inactive: 1.64.
The same measure, in the same setting: as for NYSKMYCNPDA [KNL1_Y489_A486S], the figure is inactive: 0.642.
For TKVVHYRKWIK [KLK2_Y249], the enrichment score was inactive: 0.611.
Consider NYAKMYCNPDA [KNL1_Y489], for which the enrichment score was inactive: 0.537.
Take KILTHYKQPHT [KMT2D_Y5349_R5351Q]: the enrichment score was inactive: 1.07.
For the molecule ENQEIYRKAFD [KPNA1_Y493_Q494R], the enrichment score is inactive: 0.561.
With PSARTYCYKQE [KLHDC9_Y175], the enrichment score was inactive: 0.514.
RLRKYHLGKYL [KLB_Y906_Y906H]: the enrichment score is inactive: 0.245.
As for PRARTYCYKQE [KLHDC9_Y175_S171R], the enrichment score is inactive: 0.635.
Still for that read-out and setting: with SYTDPYAQPSL [KMT2D_Y2378_P2382S] the figure was inactive: 0.649.
For the molecule HFVDEYDPTIE [KRAS_Y32], the enrichment score is inactive: 0.656.
Regarding FHLGKYLQEVL [KLB_Y910_Y906H_YF], the enrichment score was inactive: 1.33.
Same read-out and setting: as for PRARTYCFKQE [KLHDC9_Y175_S171R_YF], the figure is inactive: 0.794; as for KNDSIYVVKGN [KIT_Y823_N822I], inactive: 0.392; as for VVKTVYSLQPP [KNSTRN_Y87], inactive: 0.697.

For a further assay, the target named is SHP2 N-SH2 domain T52S. Described as above. The conditions noted are these: peptide library: pTyr-Var.
GRQWNYVASMS [KLHL4_Y552]: the enrichment score is inactive: 1.15.
On the same count and under the same terms, as for STGWSYAGVAV [KLHL3_Y577_R575W], the figure is inactive: 0.726; as for KNDSKYVVKGN [KIT_Y823_N822K], inactive: 0.565; as for RLRKYYLGKYL [KLB_Y906], inactive: 0.234.
On the same count and under the same terms, as for VLRQVYVDFEG [KMT2B_Y1707_R1705Q], the figure is inactive: 1.8.
Consider NYSKMYCNPDA [KNL1_Y489_A486S], for which the enrichment score was inactive: 0.438.
In the case of TKVVHYRKWIK [KLK2_Y249], the enrichment score was inactive: 0.647.
Take NYAKMYCNPDA [KNL1_Y489]: the enrichment score is inactive: 0.722.
On to KILTHYKQPHT [KMT2D_Y5349_R5351Q], for which the enrichment score was inactive: 1.3.
Turning to ENQEIYRKAFD [KPNA1_Y493_Q494R], the enrichment score was inactive: 0.57.
On to PSARTYCYKQE [KLHDC9_Y175], for which the enrichment score was inactive: 0.6.
Take RLRKYHLGKYL [KLB_Y906_Y906H]: the enrichment score was inactive: 0.259.
With PRARTYCYKQE [KLHDC9_Y175_S171R], the enrichment score is inactive: 0.483.
As to SYTDPYAQPSL [KMT2D_Y2378_P2382S], the enrichment score was inactive: 0.718.
HFVDEYDPTIE [KRAS_Y32]: the enrichment score was inactive: 0.949.
On the same count and under the same terms, with FHLGKYLQEVL [KLB_Y910_Y906H_YF] the figure was inactive: 1.17.
Still for that read-out and setting: with PRARTYCFKQE [KLHDC9_Y175_S171R_YF] the figure was inactive: 0.9.
On to KNDSIYVVKGN [KIT_Y823_N822I], for which the enrichment score is inactive: 0.566.
Consider VVKTVYSLQPP [KNSTRN_Y87], for which the enrichment score was inactive: 0.745.

Another assay deals with SHP2 N-SH2 domain wild-type. The assay is described as above. The conditions noted are these: peptide library: pTyr-Var.
On to GRQWNYVASMS [KLHL4_Y552], for which the enrichment score is inactive: 1.25.
Turning to STGWSYAGVAV [KLHL3_Y577_R575W], the enrichment score is inactive: 0.946.
For the molecule KNDSKYVVKGN [KIT_Y823_N822K], the enrichment score was inactive: 0.711.
Turning to RLRKYYLGKYL [KLB_Y906], the enrichment score is inactive: 0.266.
Turning to VLRQVYVDFEG [KMT2B_Y1707_R1705Q], the enrichment score was inactive: 1.99.
As for NYSKMYCNPDA [KNL1_Y489_A486S], the enrichment score is inactive: 0.64.
TKVVHYRKWIK [KLK2_Y249]: the enrichment score is inactive: 0.973.
On to NYAKMYCNPDA [KNL1_Y489], for which the enrichment score is inactive: 0.736.
Same read-out and setting: as for KILTHYKQPHT [KMT2D_Y5349_R5351Q], the figure is inactive: 1.18; as for ENQEIYRKAFD [KPNA1_Y493_Q494R], inactive: 0.816.
Same read-out and setting: with PSARTYCYKQE [KLHDC9_Y175] the figure was inactive: 0.752; with RLRKYHLGKYL [KLB_Y906_Y906H], inactive: 0.316; with PRARTYCYKQE [KLHDC9_Y175_S171R], inactive: 0.448.
SYTDPYAQPSL [KMT2D_Y2378_P2382S]: the enrichment score was inactive: 0.747.
With HFVDEYDPTIE [KRAS_Y32], the enrichment score was inactive: 0.783.
The same measure, in the same setting: with FHLGKYLQEVL [KLB_Y910_Y906H_YF] the figure was inactive: 1.49.
PRARTYCFKQE [KLHDC9_Y175_S171R_YF]: the enrichment score was inactive: 0.955.
Same read-out and setting: as for KNDSIYVVKGN [KIT_Y823_N822I], the figure is inactive: 0.677; as for VVKTVYSLQPP [KNSTRN_Y87], inactive: 1.12.
